Test results from patent publication US20170081409A1 (AGENUS, published 2017).

Tests used:
Assay in all cases: suspension array (Luminex), protein coupled to beads, PE anti-human IgG detection
[1] = molecular target: T1, human SIRPγ-His chimera (Sino Biologicals, Cat#11828-H08H) (human, UniProt Q9P1W8 29-360)
T1 construct: Purchased reagent coupled to Luminex microspheres; also called signal regulatory protein gamma; not shown: His tag
Description: (§1) An anti-human IgG antibody labeled with phycoerythrin (PE) was then added to detect AGEN2034w. Binding was assessed by a Luminex® 200 detection system.

[2] = molecular target: T2, human B7-H7-Fc chimera (R&D systems, Cat#8084-B7-050) (human, UniProt Q9UM44 23-344)
T2 construct: Purchased reagent coupled to Luminex microspheres; also called B7 homolog 7; not shown: Fc portion of the purchased chimera
T2 sequence (looked up): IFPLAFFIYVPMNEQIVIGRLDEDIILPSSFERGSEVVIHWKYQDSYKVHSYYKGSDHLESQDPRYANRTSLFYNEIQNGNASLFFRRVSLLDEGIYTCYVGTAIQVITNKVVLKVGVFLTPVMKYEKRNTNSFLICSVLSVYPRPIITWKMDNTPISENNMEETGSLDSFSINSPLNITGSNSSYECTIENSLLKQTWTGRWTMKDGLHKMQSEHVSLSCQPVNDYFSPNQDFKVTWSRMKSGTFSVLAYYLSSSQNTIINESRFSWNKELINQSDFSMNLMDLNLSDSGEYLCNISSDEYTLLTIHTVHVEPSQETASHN
Description: as §1

[3] = molecular target: T3, human ROBO2-Fc chimera (R&D systems, Cat#3147-RB-050) (human, UniProt Q9HCK4 22-859)
T3 construct: Purchased reagent coupled to Luminex microspheres; also called roundabout homolog 2; not shown: Fc portion of the purchased chimera
T3 sequence (looked up): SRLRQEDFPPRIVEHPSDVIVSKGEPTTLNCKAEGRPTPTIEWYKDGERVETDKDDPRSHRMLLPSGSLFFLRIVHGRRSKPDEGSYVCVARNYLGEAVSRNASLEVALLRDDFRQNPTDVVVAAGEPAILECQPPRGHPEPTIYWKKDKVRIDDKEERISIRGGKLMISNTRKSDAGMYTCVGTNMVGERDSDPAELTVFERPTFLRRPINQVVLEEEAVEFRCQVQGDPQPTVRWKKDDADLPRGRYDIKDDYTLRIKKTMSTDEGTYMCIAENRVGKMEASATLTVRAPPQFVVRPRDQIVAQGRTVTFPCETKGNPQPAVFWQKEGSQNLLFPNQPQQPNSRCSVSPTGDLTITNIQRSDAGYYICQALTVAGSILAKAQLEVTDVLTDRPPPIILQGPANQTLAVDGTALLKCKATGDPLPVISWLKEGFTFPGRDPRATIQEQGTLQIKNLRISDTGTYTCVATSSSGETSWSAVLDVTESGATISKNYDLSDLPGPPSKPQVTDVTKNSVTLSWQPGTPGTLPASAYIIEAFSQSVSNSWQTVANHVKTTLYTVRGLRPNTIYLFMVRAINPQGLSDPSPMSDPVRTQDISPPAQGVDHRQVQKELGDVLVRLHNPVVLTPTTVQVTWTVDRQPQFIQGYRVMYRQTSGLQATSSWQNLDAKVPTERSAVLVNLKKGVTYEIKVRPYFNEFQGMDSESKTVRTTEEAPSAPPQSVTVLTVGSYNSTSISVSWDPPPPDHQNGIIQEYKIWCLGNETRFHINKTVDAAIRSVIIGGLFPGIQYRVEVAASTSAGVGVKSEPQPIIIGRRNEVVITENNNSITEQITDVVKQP
Description: as §1

Measured: binding result

T1 sequence (Q9P1W8 29-360 limits assumed): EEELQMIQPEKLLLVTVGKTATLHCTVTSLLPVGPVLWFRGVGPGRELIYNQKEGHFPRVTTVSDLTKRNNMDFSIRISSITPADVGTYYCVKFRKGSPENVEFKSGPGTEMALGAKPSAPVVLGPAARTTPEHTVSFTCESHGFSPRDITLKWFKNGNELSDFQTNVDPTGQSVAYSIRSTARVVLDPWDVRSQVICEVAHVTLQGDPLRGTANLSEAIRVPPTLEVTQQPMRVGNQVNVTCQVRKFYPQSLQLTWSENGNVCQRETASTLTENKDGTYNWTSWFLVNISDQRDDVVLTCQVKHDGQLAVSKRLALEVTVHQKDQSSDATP

B1: AGEN2034w (antibody, human IgG4 S228P, kappa)
heavy: QVQLVESGGGVVQPGRSLRLSCAASGFTFSSYGMHWVRQAPGKGLEWVAVIWYDGSNKYYADSVKGRFTISRDNSKNTLYLQMNSLRAEDTAVYYCASNGDHWGQGTLVTVSSASTKGPSVFPLAPCSRSTSESTAALGCLVKDYFPEPVTVSWNSGALTSGVHTFPAVLQSSGLYSLSSVVTVPSSSLGTKTYTCNVDHKPSNTKVDKRV[letters of human IgG4 Fc with S228P (EU numbers) not shown]
light: EIVMTQSPATLSVSPGERATLSCRASQSVSSNLAWYQQKPGQAPRLLIYGASTRATGIPARFSGSGSGTEFTLTISSLQSEDFAVYYCQQYNNWPRTFGQGTKVEIKRTVAAPSVFIFPPSDEQLKSGTASVVCLLNNFYPREAKVQWKVDNALQSGNSQESVTEQDSKDSTYSLSSTLTLSKADYEKHKVYACEVTHQGLSSPVTKSFNRGEC
notes: also called BADD438-2744 (VH); 3738 (VL)
no binding (tested: up to 7.5 µg/ml): all assays above
